Test results as given in a compilation of properties of binary mixtures (doi:10.1016/j.molliq.2016.09.008).
Some of these densities may be calculated back from excess volumes.

Test: xn = mol fraction of the nth substance listed
Conditions: 298.15 K, 101 kPa

SMILES	mass density (x1 = 1) [kg/m3]	mass density (x1 = 0.0034) [kg/m3]	mass density (x1 = 0.0062) [kg/m3]	mass density (x1 = 0.0112) [kg/m3]	mass density (x1 = 0.0129) [kg/m3]	mass density (x2 = 0.0498) [kg/m3]	mass density (x2 = 0.1048) [kg/m3]	mass density (x2 = 0.2032) [kg/m3]	mass density (x2 = 0.3007) [kg/m3]	mass density (x2 = 0.3874) [kg/m3]	mass density (x2 = 0.4983) [kg/m3]
C[N+](=O)[O-] + CC[NH3+].O=[N+]([O-])[O-]	1130.9	–	–	–	–	–	–	–	–	–	–
CC[NH3+].O=[N+]([O-])[O-] + C[N+](=O)[O-]	–	1132.1	1133	1133	1134.2	1209.2	1207.3	1205.9	1203.4	1199.2	1196.1
